About 540 (0.36%) of roughly 150,000 compounds showed an effect of 50% or more. This is one part of the list.

The assay has as its system Plasmodium falciparum. As to the kind of experiment: Primary screen in NF54 nanoGlo assay, in single point, at 2uM, 72h; a lower Z score goes with more inhibition. Format: functional, Erythrocyte. The note with it: timepoint 72 hour.
As for `Cn1nc(C(=O)NCc2cccc(F)c2)cc1C(=O)NCc1cccc(F)c1`, the “% Inhibition” value is on record as -7% and the Z score was 0.96.
For `O=C(c1nccc2ccccc12)N1CC(F)(F)C[C@H]1COc1ccncc1`, in that order: -6% and 0.97.
For `Cc1ccc(S(N)(=O)=O)c(C(=O)NC[C@](C)(O)c2ccc(C)o2)c1`, in that order: -16% and 2.18.
For `O=C(Nc1cccnc1-n1cc(Br)cn1)C1Oc2ccccc2O1`, in that order: 9% and -1.48.
For `O=C(Cc1ccsc1)N1CCn2nccc2C1`, the “% Inhibition” value is -12% and the Z score came to 1.8.
For `Cc1ccc(OCC(=O)NC2CCN(Cc3ccccc3)CC2)cc1`, in that order: -8% and 0.81.
For `O=S(=O)(N[C@H]1CCc2[nH]c3ccccc3c2C1)c1ccc(F)cc1`, in that order: 0% and -0.04.
For `COc1ccc(F)cc1-c1nccn1Cc1c(C)nn(C(C)C)c1C`, in that order: 3% and -0.65.
Regarding `NC(=O)[C@@H]1CN(Cc2ccc3c(c2)CCO3)C[C@H]1COc1ccncc1`, the “% Inhibition” value is 2% and the Z score is -0.33.
Consider `CCc1ccc(-c2cn([C@H](c3ccccc3)c3nnc(N)s3)nn2)o1`, for which the “% Inhibition” value was -16% and the Z score is 1.47.
In the case of `CCN(C)S(=O)(=O)N1C[C@H](C(=O)O)[C@@H](C2CC2)C1`, the “% Inhibition” value is listed as -12% and the Z score amounted to 2.1.
For `O=C(O)[C@H]1CN(C(=O)Cc2cccc(F)c2)C[C@@H]1C1CC1`, in that order: -16% and 3.08.
For `COc1cc(=O)[nH]cc1C(=O)N1CC[C@H](c2ccccc2)[C@H](CO)C1`, in that order: -12% and 1.79.
Regarding `CC[C@@H](C(=O)N1CCC(C#N)CC1)N(C)CC`, the “% Inhibition” value is reported as -11% and the Z score stood at 1.68.
For `Cc1ncc(C(=O)OCC(F)(F)C(F)F)c(N)n1`, in that order: -2% and 0.35.
Regarding `CC1COC(c2ccccc2Cl)CN1C(=O)NCc1cccnc1` (stereo unspecified), the “% Inhibition” value is -1% and the Z score worked out at 0.19.
For `CO[C@@H](CNS(C)(=O)=O)c1cccc(Cl)c1`, in that order: -10% and 1.22.
For `CCCc1nc(C)c(CNCc2nc(C)c(C)n2C)s1`, in that order: -8% and 1.52.
For `Cc1nn(-c2ccccc2)c(C)c1C(=O)NC[C@H]1CCS(=O)(=O)C1`, in that order: -5% and 0.87.
For `CN(Cc1ccccc1Br)C(=O)CCNC1C2CCOC2C12CCC2` (stereo unspecified), the “% Inhibition” value is -3% and the Z score is recorded as 0.38.
As for `COc1ccc(N2C(=O)c3ccccc3N[C@@H]2c2cccn2C)c(OC)c1`, the “% Inhibition” value is recorded as -10% and the Z score stood at 1.89.
Take `CCCn1nnnc1CN1CCO[C@H](c2nc(C)n[nH]2)C1`: the “% Inhibition” value was determined as 0% and the Z score is 0.
For the compound `Oc1ccc(C2N=C(c3ccccc3)NC(c3ccccc3)=N2)cc1`, the “% Inhibition” value is recorded as -1% and the Z score amounted to 0.16.
For `Cc1nccn1CCN(C)Cc1ccc(Cl)c(F)c1`, in that order: -7% and 1.29.
Regarding `O=C(Cn1cccn1)N1CCCC[C@@H]1CCOc1cccc(CN2CCN(c3cccc(Cl)c3)CC2)c1`, the “% Inhibition” value is reported as 8% and the Z score was -1.45.
Consider `Cc1ncsc1C(=O)O[C@H](c1cccnc1)C(F)(F)F`, for which the “% Inhibition” value was determined as 0% and the Z score was -0.01.
`Cc1csc(CN(C)Cc2nc(C)c(C)n2C)n1`: the “% Inhibition” value was -20% and the Z score worked out at 1.84.
As for `COC(C)(C)c1noc(-c2cc3cc(O)ccc3nc2C)n1`, the “% Inhibition” value is recorded as -4% and the Z score is given as 0.6.
Turning to `O=C(NC1CCCCCC1)[C@@H]1CC(c2ccccc2)=NO1`, the “% Inhibition” value was -4% and the Z score worked out at 0.49.
For `CCOc1cc(CNC2CCCC2)cc(Br)c1OCC(=O)Nc1ccccc1OC`, in that order: -12% and 1.42.
For `COCCn1c(=O)n(Cc2ncccn2)c2cc(C(=O)OC)ccc21`, in that order: -3% and 0.55.
On to `Cc1nc(NCCCn2cncn2)cc(C(C)C)n1`, for which the “% Inhibition” value turned out to be 3% and the Z score is listed as -0.26.
In the case of `Cc1ccc(-c2nc3cnccn3c2Nc2ccc(C)c(Br)c2)o1`, the “% Inhibition” value is given as 1% and the Z score is on record as -0.08.
For `Fc1ccc(-c2cc(-c3ccccc3)nnc2-c2ccccc2)cc1`, in that order: -3% and 0.59.
As to `FC1(F)C[C@@H](c2nnc(-c3ccncc3)o2)N(CC2CC2)C1`, the “% Inhibition” value is reported as -2% and the Z score came out at 0.41.
For the compound `Cn1c(C(=O)Nc2nc3c(s2)CCC3)cc(Cl)c1Cl`, the “% Inhibition” value is given as -4% and the Z score came to 0.72.
For `Nc1c(NC(=O)NC2CCCC2)c(-c2ccc(Cl)cc2)nn1-c1ccccc1`, in that order: -3% and 0.4.
For `CC1(C(=O)Nc2cc(C3CC3)n[nH]2)CC1F` (stereo unspecified), in that order: -7% and 0.94.
For `COc1ccc(-c2ccc(C(=O)NC3CCN(C4CC4)CC3)c(F)c2)c(F)c1`, in that order: 0% and -0.03.
On to `CCOc1cccc([C@@H]2CC(c3cccc(OC)c3)=NC3(CCN(CC)CC3)N2)c1O`, for which the “% Inhibition” value is -12% and the Z score was 1.39.
With `CCCCc1nc(CN2CC[C@H](Oc3ccccc3)C2)c[nH]1`, the “% Inhibition” value worked out at 9% and the Z score is given as -1.69.
For `Cn1ncc(C2CCC2)c1CNC(=O)OCCF`, in that order: -1% and 0.19.
For `Cn1cnnc1[C@@H]1CCCN1c1ncc(C(=O)N2CCCCC2)cc1Cl`, in that order: 3% and -0.32.

Values taken from ChEMBL document CHEMBL4888484, “Replenishing the malaria drug discovery pipeline: Screening and hit evaluation of the MMV Hit Generation Library 1 (HGL1) against asexual blood stage Plasmodium falciparum ,using a nano luciferase reporter read-out” (2022).
